# According to article PMC4336329 (PLoS ONE, 2015):
# Among all 310,000 compounds or so, about 14,000 (4.5%) showed an effect of 50% or more. Effects have a minus sign here. Some of the results follow.
# Target: human ether-à-go-go-related gene (hERG) potassium channel (human, UniProt Q12809)
# Experiment: primary screen, population patch clamp on CHO cells stably expressing hERG
# 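Note: peak tail current of the secondary pulse compared with the same well before compound.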
# human ether-à-go-go-related gene (hERG) potassium channel, sequence (Q12809 whole entry, looked up): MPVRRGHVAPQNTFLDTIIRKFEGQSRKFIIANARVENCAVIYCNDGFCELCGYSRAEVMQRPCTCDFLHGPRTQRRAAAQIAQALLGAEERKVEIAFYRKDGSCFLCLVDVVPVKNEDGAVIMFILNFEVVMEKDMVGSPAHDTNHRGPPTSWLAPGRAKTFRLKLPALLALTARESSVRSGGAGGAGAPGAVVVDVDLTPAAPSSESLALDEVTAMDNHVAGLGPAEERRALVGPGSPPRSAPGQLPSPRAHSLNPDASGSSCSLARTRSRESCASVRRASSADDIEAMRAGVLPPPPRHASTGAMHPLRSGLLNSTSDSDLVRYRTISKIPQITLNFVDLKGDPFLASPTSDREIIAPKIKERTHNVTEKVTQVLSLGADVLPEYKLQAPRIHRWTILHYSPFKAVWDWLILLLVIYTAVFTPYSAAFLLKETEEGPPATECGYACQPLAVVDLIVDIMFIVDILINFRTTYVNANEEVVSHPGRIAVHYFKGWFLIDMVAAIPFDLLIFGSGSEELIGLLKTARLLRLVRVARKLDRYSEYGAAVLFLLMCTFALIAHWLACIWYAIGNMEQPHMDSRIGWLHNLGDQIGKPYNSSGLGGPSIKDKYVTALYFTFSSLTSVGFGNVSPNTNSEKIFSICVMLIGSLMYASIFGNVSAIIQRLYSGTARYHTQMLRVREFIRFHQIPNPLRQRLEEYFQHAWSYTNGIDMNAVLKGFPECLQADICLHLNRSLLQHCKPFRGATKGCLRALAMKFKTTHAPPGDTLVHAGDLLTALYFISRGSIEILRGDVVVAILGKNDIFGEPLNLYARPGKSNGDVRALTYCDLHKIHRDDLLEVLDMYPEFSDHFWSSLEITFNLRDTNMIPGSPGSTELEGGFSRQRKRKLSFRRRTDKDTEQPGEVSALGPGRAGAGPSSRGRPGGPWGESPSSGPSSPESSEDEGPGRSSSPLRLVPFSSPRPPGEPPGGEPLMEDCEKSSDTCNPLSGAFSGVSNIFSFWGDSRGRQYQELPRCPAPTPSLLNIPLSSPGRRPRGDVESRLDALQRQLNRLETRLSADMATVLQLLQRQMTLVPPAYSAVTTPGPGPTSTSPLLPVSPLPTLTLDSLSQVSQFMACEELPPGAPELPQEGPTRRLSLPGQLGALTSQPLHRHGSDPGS
row,SMILES,"hERG current change (%, negative = inhibition) at 10uM"
1,COc1ccccc1NC(=O)CSc1nc(=O)n(CCN2CCOCC2)c2c1CCC2,-12.2%
2,COc1ccc(CCNC(=O)C(=O)NCC2OCCN2S(=O)(=O)c2ccc(Cl)cc2)cc1 (centres unmarked),7.58%
3,COC(=O)c1ccc(NC(=O)CC(=O)Nc2ccc(C(=O)OC)cc2)cc1,14.1%
4,Cc1ccc(C(=O)NNC(=O)c2cccc(Br)c2)cc1,-3.61%
5,COC(=O)Cc1c(C(=O)OC)nnn1-c1ccc(OC(F)(F)F)cc1,5.77%
6,CC(=O)NCC1CCCN(C(=O)c2oc3c(F)cccc3c2C)C1 (centres unmarked),21.2%
7,CCOC(=O)c1cc(NCc2cccs2)ccc1N1CCOCC1,-3.79%
8,CN(Cc1ccco1)C(=O)c1cc2c(s1)-c1ccc(Cl)cc1S(=O)(=O)C2,-1.74%
9,COc1ccc(NS(=O)(=O)c2ccc(Oc3c(C#N)cccc3C#N)cc2)cc1,-13.1%
10,O=C(c1ccc(Cl)c(S(=O)(=O)N2CCCCCC2)c1)N1CCCC(C(F)(F)F)C1 (centres unmarked),-58.9%
11,COc1ccc(Oc2cnn(-c3ccccc3)c(=O)c2Br)cc1,9.51%
12,Cc1c(NC(=O)COC(=O)CCC(=O)c2ccc(Cl)cc2)c(=O)n(-c2ccccc2)n1C,1.22%
13,CCN1CCN(C(=O)c2cc(COc3ccc(C(C)=O)cc3OC)on2)CC1,9.41%
14,C/C(N)=C(/C#N)C(=O)COC(=O)C(NS(=O)(=O)c1ccc(Cl)cc1)C(C)O (centres unmarked),23.1%
15,O=C(NCCN1CCOCC1)c1ccccc1N1C(=O)[C@@H]2Cc3c([nH]c4ccccc34)C(c3ccccc3)N2C1=O (some centres unmarked),-20.4%
16,COC(=O)[C@H](Cc1ccccc1)NC(=O)[C@@H]1C[C@H]1[C@@H](NC(=O)OCc1ccccc1)c1ccccc1,-34.1%
17,COc1ccc(-c2cc(=O)c3cc(OC)ccc3[nH]2)cc1,-12.4%
18,Cc1ccc2cc(CCNC(=O)c3ccc(S(=O)(=O)N4CCCCC4)cc3)c(=O)[nH]c2c1,2.63%
19,CCCc1[nH][nH]c(=O)c1C(c1ccccc1)C(C#N)C#N (centres unmarked),-14.1%
20,CCc1nnc(NC(=O)Cn2nc(-c3ccc(OC)c(OC)c3)ccc2=O)s1,8.01%
21,Cc1ccc2oc(-c3cccc(NC(=O)c4ccc(Br)o4)c3C)nc2c1,-4.19%
22,CN(C)c1ccc(/C=N/N=C2/NC(=O)/C(=C/c3ccc([N+](=O)[O-])cc3)S2)cc1,4.42%
23,COC(=O)c1c(C(=O)OC)c2ccncn2c1Cl,7.09%
24,Cc1ccc(S(=O)(=O)N(C)c2ccc(C(=O)NCc3cccnc3)cc2)cc1,-34.2%
25,CSCCC(N=Cc1c(O)n(-c2ccc(Cl)cc2)c(=O)[nH]c1=O)C(=O)OC(C)(C)C (centres unmarked),-17.8%
26,CSCC[C@H](NC(=O)OC(C)(C)C)C(=O)N1CCC(C(=O)N[C@@H](C)C(=O)O)CC1,-1.05%
27,N#Cc1cccc(NC(=O)CNC(=O)Cc2ccccc2)c1,15.9%

row,SMILES,"hERG current change (%, negative = inhibition) at 10uM"
1,CCN(CC(=O)Nc1cccc(OC)c1)CC(=O)Nc1ccccc1C,3.9%
2,CC(Oc1ccc(Cl)cc1)C(=O)Nc1ccc(S(=O)(=O)Nc2nccs2)cc1 (centres unmarked),-3.67%
3,CN1CCN(C(c2ccccn2)c2cc(Cl)c3cccnc3c2O)CC1 (centres unmarked),-23.5%
4,CN(C)c1cccc(Oc2nc3c(c(=O)n(C)c(=O)n3C)n2C)c1,3.59%
5,Clc1cccc(-c2cc3nc4c(c(NCc5ccco5)n3n2)CCCC4)c1,7.34%
6,CCN(CC)C(=O)C(C)N(C#N)c1nc(Cl)nc(N(C)C)n1 (centres unmarked),13.8%
7,O=C(NCc1nnnn1-c1ccc(F)c(F)c1)c1cc2ccccc2o1,-25.6%
8,Cc1oc(-c2ccccc2Cl)nc1CN1CCCCC1CO (centres unmarked),-20.5%
9,CC(=O)c1ccc(NC(=O)CN2C(=O)/C(=C/C=C/c3ccccc3)SC2=S)cc1,-0.256%
10,O=C(O)CCn1cc(-c2ccc(Cl)cc2)nc1-c1ccncc1,11.5%
11,C=CCOC(=O)N1CCN(c2cccc(C(F)(F)F)c2)CC1,-23.3%
12,O=C1CCCN1c1ccc(S(=O)(=O)Oc2ccc(Cl)cc2)cc1[N+](=O)[O-],-38.7%
13,O=C(c1ccccc1)[C@@H]1[C@@H]2C(=O)N(c3ccc(F)cc3)C(=O)[C@@H]2C2CCCN21 (some centres unmarked),5.24%
14,CCOC(=O)N1CCN(C(C)C(=O)c2c[nH]c3ccccc23)CC1 (centres unmarked),-7.38%
15,CCc1ccc2[nH]c(=O)c(CN(CCN3CCCC3)C(=O)NC3CCCCC3)cc2c1,-40.9%
16,Cc1cc(C)n(-c2nc3c(c(=O)[nH]c(=O)n3C)n2Cc2ccccc2)n1,11.7%
17,O=C(NN1CC(=O)N(c2cc(Cl)cc(Cl)c2)CC1=O)c1sccc1Cl,-0.682%
18,CC(C)=NOc1nc(NC(=O)NS(=O)(=O)c2ccccc2Cl)nc(N(C)C)n1,26.5%
19,CCN(C(=O)CN1C(=O)NC2(CCCc3ccccc32)C1=O)c1ccc(F)cc1 (centres unmarked),7.72%
20,Cc1ccc(CCC(=O)Nc2cc(Cl)ccc2Cl)o1,5.91%
21,CCOc1ccccc1NC(=O)COC(=O)CN(C)S(=O)(=O)c1ccc(C)cc1,-13.5%
22,O=C(Nc1ccccc1N1CCCC1)c1cc(Cl)ccc1Cl,-2.72%
23,Cc1ccc(S(=O)(=O)CCC(=O)OCC(=O)NC(C)c2ccc(F)cc2)cc1 (centres unmarked),4.41%
24,CCOC(=O)C1CCCN(C(=S)Nc2ccc(F)cc2)C1 (centres unmarked),11.3%
25,COc1cccc(C(=O)/C=C/Nc2ccc(S(=O)(=O)Nc3cc(OC)nc(OC)n3)cc2)c1,5.92%
26,CC(=O)c1cccc(NC(=O)C2CC(c3ccc(F)cc3)=NO2)c1 (centres unmarked),11.6%
